Experimental data: the supplement of paper PMC8285479
Structures can show the parent of a compound that is named as a salt. ± gives the standard deviation of the averaged measurements. In all, about 1,900 compounds were measured (“normalised cell viability (NPI; 0 = phenylarsine oxide control, 1 = DMSO control)”: median about 1, lowest 2% from about 0.039 on). The list shows a part of the results.

System: NCI-H1944
Test: normalised cell viability (NPI; 0 = phenylarsine oxide control, 1 = DMSO control) (fraction of DMSO control); NCI-H1944 is a non-small cell lung cancer line; higher = more viable cells (less compound toxicity)
Settings: 6 days
[1] = glucocorticoid arm: hydrocortisone 2.75 uM co-treatment, compound 1 µM
[2] = glucocorticoid arm: hydrocortisone 2.75 uM co-treatment, compound 5 µM
[3] = glucocorticoid arm: hydrocortisone 2.75 uM pre-treated 2 days and continued, compound 1 µM
[4] = glucocorticoid arm: hydrocortisone 2.75 uM pre-treated 2 days and continued, compound 5 µM
[5] = glucocorticoid arm: vehicle, compound 1 µM
[6] = glucocorticoid arm: vehicle, compound 5 µM
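Note: CTB read-out in 384-well plates, mean of triplicate wells, normalised per plate against 1 µM phenylarsine oxide and 0.1% DMSO, compounds added 24 h after seeding.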

| SMILES | normalised cell viability [1] | normalised cell viability [2] | normalised cell viability [3] | normalised cell viability [4] | normalised cell viability [5] | normalised cell viability [6] |
| --- | --- | --- | --- | --- | --- | --- |
| O=P(O)(O)C(O)(Cn1ccnc1)P(=O)(O)O [Zoledronic acid; Zolendronic acid] | 0.887 ± 0.026 | 1.02 ± 0.015 | 0.9123 ± 0.0087 | 1.01 ± 0.013 | 0.8097 ± 0.004 | 1.007 ± 0.0058 |
| O=C(c1cc(O)c(O)c([N+](=O)[O-])c1)c1ccccc1F | 1 ± 0.0089 | 0.997 ± 0.025 | 1.02 ± 0.021 | 0.975 ± 0.017 | 0.9857 ± 0.0095 | 0.9863 ± 0.0021 |
| CCc1cccc(CC)c1NC(=O)N1Cc2[nH]nc(NC(=O)c3ccc(N4CCN(C)CC4)cc3)c2C1 | 0.842 ± 0.046 | 0.633 ± 0.067 | 0.917 ± 0.043 | 0.882 ± 0.06 | 0.509 ± 0.06 | 0.221 ± 0.019 |
| CC[C@@H]1C(=O)N(C)c2cnc(Nc3ccc(C(=O)N[C@H]4CC[C@H](N5CCN(CC6CC6)CC5)CC4)cc3OC)nc2N1C(C)C [BI6727 (Volasertib)] | 0.346 ± 0.023 | 0.201 ± 0.025 | 0.58 ± 0.017 | 0.213 ± 0.15 | 0.0771 ± 0.019 | 0.0219 ± 0.0034 |
| Nc1c(O)cc(O)cc1C=Cc1ccc(O)cc1 [Aminoresveratrol sulfate] | 1 ± 0.015 | 1.01 ± 0.02 | 1.01 ± 0.015 | 1.01 ± 0.014 | 0.9937 ± 0.0027 | 1.01 ± 0.012 |
| COc1ccc(Cl)cc1C(=O)NCCc1ccc(S(=O)(=O)NC(=O)NC2CCCCC2)cc1 [Glybenclamide] | 1.01 ± 0.018 | 0.9983 ± 0.0021 | 1.007 ± 0.0058 | 0.997 ± 0.013 | 1.001 ± 0.0081 | 1.003 ± 0.0058 |
| CCCOc1ccccc1-c1nc2[nH]nnc2c(=O)[nH]1 [Zaprinast] | 1.023 ± 0.0058 | 1.013 ± 0.0058 | 1.04 ± 0.026 | 1.01 ± 0.01 | 1.023 ± 0.0058 | 1.023 ± 0.0058 |
| Cc1nc(C(=O)NCC(=O)O)c(O)c2ccc(Oc3ccccc3)cc12 | 0.9907 ± 0.0081 | 1.01 ± 0.011 | 0.9877 ± 0.0015 | 1.006 ± 0.0075 | 1.003 ± 0.0058 | 0.9967 ± 0.0031 |
| CC(C)N(CC[C@H](c1ccccc1)c1cc(CO)ccc1O)C(C)C | 0.992 ± 0.026 | 0.991 ± 0.018 | 1.02 ± 0.015 | 0.994 ± 0.017 | 1.005 ± 0.0081 | 0.998 ± 0.011 |
| Cn1cc(C(F)(F)F)nc1-c1ccc(OCC(O)CNCCOc2ccc(O)c(C(N)=O)c2)cc1 (stereo unspecified) | 1 | 0.97 ± 0.014 | 0.9983 ± 0.0029 | 0.983 ± 0.015 | 1.007 ± 0.0058 | 0.998 ± 0.012 |
| CC(C(O)c1ccc(O)cc1)N1CCC(Cc2ccccc2)CC1 (stereo unspecified) [Ifenprodil Tartrate] | 0.9203 ± 0.0078 | 0.88 ± 0.023 | 0.96 ± 0.035 | 0.93 ± 0.035 | 1.003 ± 0.0058 | 0.9643 ± 0.0067 |
| CC(C(O)c1ccc(O)cc1)N1CCC(Cc2ccccc2)CC1 (stereo unspecified) [Ifenprodil tartrate] | 0.936 ± 0.0079 | 0.902 ± 0.03 | 0.9643 ± 0.0064 | 1.04 ± 0.09 | 0.975 ± 0.0095 | 0.979 ± 0.012 |
| O=c1ccn([C@@H]2O[C@H](COP(=O)(O)OP(=O)(O)O)[C@@H](O)[C@H]2O)c(=O)[nH]1 [Uridine 5'-diphosphate sodium] | 1 ± 0.0087 | 1.017 ± 0.0058 | 1.02 ± 0.015 | 0.998 ± 0.0027 | 0.996 ± 0.0069 | 0.9977 ± 0.004 |
| Cc1ccc(OCC(O)C(C)NC(C)C)c2c1CCC2 (stereo unspecified) [ICI 118,551 hydrochloride] | 0.996 ± 0.013 | 1.01 ± 0.038 | 1.003 ± 0.0058 | 1.05 ± 0.078 | 0.993 ± 0.001 | 1.01 ± 0.015 |
| NC(C(=O)O)C(O)C(=O)O (racemic) [DL-threo-beta-hydroxyaspartic acid] | 1.01 ± 0.011 | 1.01 ± 0.028 | 1.01 ± 0.022 | 1.01 ± 0.018 | 1.003 ± 0.0061 | 1.001 ± 0.0081 |
| O=C(O)C1=CC(=C(c2ccc(O)c(C(=O)O)c2)c2ccc(O)c(C(=O)O)c2)C=CC1=O [Aurintricarboxylic acid] | 0.9873 ± 0.0042 | 1.02 ± 0.011 | 0.9853 ± 0.0042 | 1.025 ± 0.0071 | 0.98 ± 0.016 | 0.9767 ± 0.0065 |
| C[C@H](CS)C(=O)N1CCC[C@H]1C(=O)O [Captopril] | 1.01 ± 0.019 | 1.02 ± 0.028 | 1.01 ± 0.018 | 1.03 ± 0.035 | 1.02 ± 0.038 | 1.01 ± 0.01 |
| Nc1nc(N)c2nc(-c3cccc(O)c3)c(-c3cccc(O)c3)nc2n1 | 1.013 ± 0.0058 | 0.996 ± 0.036 | 1.01 ± 0.015 | 1.01 ± 0.03 | 0.991 ± 0.007 | 0.992 ± 0.0066 |
| Cn1cnc2c(F)c(Nc3ccc(Br)cc3Cl)c(C(=O)NOCCO)cc21 [AZD6244 (Selumetinib)] | 0.636 ± 0.0087 | 0.558 ± 0.018 | 0.667 ± 0.013 | 0.675 ± 0.031 | 0.701 ± 0.013 | 0.545 ± 0.048 |
| NC(=O)c1ccccc1 [Benzamide] | 1 ± 0.013 | 1 ± 0.016 | 1.003 ± 0.0058 | 0.9935 ± 0.0078 | 0.9957 ± 0.0075 | 0.9973 ± 0.0046 |
| NC(N)=NC(N)=Nc1ccccc1 [1-Phenylbiguanide] | 0.9727 ± 0.0086 | 0.976 ± 0.0044 | 0.996 ± 0.013 | 0.97 ± 0.014 | 0.9833 ± 0.0097 | 0.9757 ± 0.0025 |
| NCCc1ccc(O)c(O)c1 [Dopamine HCl] | 1.02 ± 0.016 | 1.01 ± 0.015 | 1.017 ± 0.0058 | 1.02 ± 0.015 | 0.998 ± 0.0035 | 0.998 ± 0.0035 |
| NCCc1ccc(O)c(O)c1 [Dopamine hydrochloride] | 0.9903 ± 0.0035 | 0.973 ± 0.022 | 0.9897 ± 0.0071 | 0.987 ± 0.013 | 0.976 ± 0.006 | 0.9827 ± 0.0035 |
| C[C@H](Cc1ccc(O)c(O)c1)[C@@H](C)Cc1ccc(O)c(O)c1 | 0.996 ± 0.013 | 1.02 ± 0.02 | 0.998 ± 0.013 | 1.04 ± 0.058 | 1.013 ± 0.0058 | 1.02 ± 0.011 |
| CCCCCC(O)CCCC(=O)O (stereo unspecified) [5-hydroxydecanoic acid sodium salt] | 1.01 | 1.02 | 1.02 ± 0.018 | 1.01 ± 0.015 | 1 | 1.006 ± 0.0063 |
| N#CC1(c2ccc(NC(=O)c3cccnc3NCc3ccncc3)cc2)CCCC1 [Apatinib (YN968D1)] | 0.8793 ± 0.0038 | 0.568 ± 0.033 | 0.908 ± 0.015 | 0.708 ± 0.061 | 0.92 ± 0.026 | 0.53 ± 0.1 |
